# According to PubChem BioAssay AID463173 (ICCB-Longwood Screening Facility, Harvard Medical School, 2010):
# Hit rate of the full screen: of about 52,000 compounds, about 4,300 (8.3%) were called active. No stated cut-off is given here; in the data, active means survival mostly below about 52% (no sharp cut-off); inactive means mostly above about 56%. This is one part of the list.
# Tested on: DeltatarO mutant
# Experiment: S. aureus survival, RN4220 and DeltatarO strains – OD600, teichoic acid synthesis inhibitors, primary screen (AID 463173)
# Details: S. aureus RN4220 wild type/DeltatarO growth, OD600, 18 h, stronger effect = lower value, screened at 18.75 µg/mL (by protocol)
row,Compound,survival
1,CCOc1ccc(C(=O)NCCn2cc(SCC(=O)Nc3ccccc3)c3ccccc32)cc1,inactive: 71%
2,COC(=O)c1cc(NC(=O)c2sc3ncn(Cc4cccc(F)c4)c(=O)c3c2C)cc(C(=O)OC)c1,inactive: 92%
3,COc1cc(CN(C(=O)c2cccc(C)c2)c2ccccn2)cc(OC)c1OC,inactive: 79%
4,Cc1ccc(-n2c(SCC(=O)NCc3ccccc3)nc3c([nH]c4ccccc43)c2=O)cc1,inactive: 63%
5,O=C(Cn1nc(C(F)(F)F)c2c1CCC2)Nc1ccc(Cl)cc1,inactive: 54%
6,Cc1cc(C)c2c(CC(=O)Nc3ccc(S(=O)(=O)Nc4ncccn4)cc3)coc2c1,inactive: 83%
7,CCN(Cc1ccccc1)C(=O)CN1C(=O)COc2ccc(S(=O)(=O)N(CC)CC)cc21,inactive: 80%
8,COC(=O)c1ccc[nH]c1=S,inactive: 100%
9,CC1=C(C(=O)Nc2ccc(Cl)cc2)C(C(C)C)n2nc(SCc3ccc(Cl)cc3)nc2N1 (configuration not stated),inactive: 65%
10,O=C(NCC1CCN(Cc2cccc(Cl)c2)CC1)c1cc2ccc3cccnc3c2[nH]1,inactive: 75%
11,CC(C)C(=O)Nc1ccc(NC(=O)c2ccccc2)nc1,inactive: 87%
12,O=C(N1CCCCC1)N1CCC(c2nc3ccccc3[nH]2)CC1,inactive: 95%
13,Cc1ccc(OC(=O)CSc2nnc(-c3cccs3)o2)cc1C,inactive: 68%
14,O=c1nc(N2CCOCC2)nc(N2CCOCC2)[nH]1,inactive: 100%
15,CCn1cc(C(=O)NCCc2ccc(OC)c(OC)c2)c(=O)c2cc(S(=O)(=O)N3CCC(C)CC3)ccc21,inactive: 86%
16,CCOc1ccc(-n2c(SCC(=O)N3CCCCCC3)nc3c([nH]c4ccccc43)c2=O)cc1,inactive: 106%
17,CCOc1ccc(N(CC(=O)Nc2ccccc2CC)S(=O)(=O)c2c(C)[nH]c(=O)[nH]c2=O)cc1,inactive: 79%
18,Cc1ccc(NC(=O)c2sc3nc[nH]c(=O)c3c2C)cc1Cl,inactive: 102%
19,Clc1ccc2c(c1)CN(C1CCCCC1)CO2,inactive: 98%
20,CCOc1ccccc1NC(=O)Cn1c(=O)n(Cc2ccco2)c(=O)c2ccc(C(=O)NC3CCCC3)cc21,inactive: 82%
21,C/C(=N\O)C(=O)NCc1cccnc1,inactive: 73%
22,N=C1SCC(=O)N1c1ccc(Cl)cc1,inactive: 109%
23,COc1ccc(Cl)cc1NC(=O)Cn1nc(Cc2ccncc2)c2ccccc2c1=O,inactive: 62%

row,Compound,survival
1,Cc1cc(F)ccc1NC1(c2ccccc2)C(=O)c2ccccc2C1=O,inactive: 79%
2,CCc1ccccc1NC(=O)C1CCN(C(=O)N2CC(C)Oc3ccc(Cl)cc32)CC1 (configuration not stated),active: 55%
3,COc1ccc(CNC(=O)CCn2nc(C)c3c(C)n(-c4ccccc4)nc3c2=O)c(OC)c1,inactive: 78%
4,Cc1cccc(NC(=O)c2cc(S(=O)(=O)N3CCN(c4ccccc4F)CC3)ccc2F)c1C,inactive: 84%
5,CNC(=O)Cn1c(=O)c2cccn2c2ccc(F)cc21,inactive: 92%
6,COc1cc(C2c3c(-c4ccc(C)cc4)n[nH]c3C(=O)N2c2ccc(F)cc2)ccc1O (configuration not stated),inactive: 95%
7,O=C(CCNS(=O)(=O)c1cccc2nsnc12)NCc1ccccc1,inactive: 54%
8,CC(C)CNc1ncnc2c1nnn2C,inactive: 95%
9,COc1ccc(CNC(=O)c2ccc3nc(CCc4ccccc4)oc3c2)c(OC)c1,inactive: 135%
10,Cc1c(Cl)cccc1-n1ncc(C(=O)NCc2cccs2)c1C1CCN(C(=O)OC(C)(C)C)CC1,inactive: 95%
11,COC(=O)c1c(NC(=O)c2cc(OC)c(OC)c(OC)c2Br)sc2c1CCC(C)C2 (configuration not stated),inactive: 46%
12,Cc1cc(=O)n(Cc2cccc(F)c2)c2c1c(C)nn2-c1cccc(F)c1,inactive: 118%
13,CCc1cccc(CC)c1-n1nnc2c(sc3nc(C)cc(C)c32)c1=O,inactive: 83%
14,Cc1ccccc1CN1c2ccccc2-c2nc(SCC(N)=O)ncc2S1(=O)=O,inactive: 85%
15,O=C(CSc1nc(-c2ccc(F)cc2)[nH]c1-c1ccccc1)Nc1ccccc1,inactive: 67%
16,Clc1ccc(OCc2nc3ccccc3n2Cc2ccccc2)c(Cl)c1,active: 14%
17,N#C/C(=C/c1cn(Cc2ccccc2Cl)c2ccccc12)C(=O)Nc1cccc(Cl)c1,inactive: 92%
18,COc1ccc(OC)c(C2C(C(=O)N3CCCCC3)=C(C)Nc3nc4ccccc4n32)c1 (configuration not stated),inactive: 63%
19,CC(C)(C)c1ccc(CN(Cc2ccco2)c2cnc(S(C)(=O)=O)nc2C(=O)Nc2ccc(F)cc2)cc1,inactive: 102%
20,Cc1cc(C)c(NC(=O)Cn2c(=O)nc(-c3ccccc3)c3cc(Cl)ccc32)c(C)c1,inactive: 75%
21,COc1cc(NC(=O)N2CCC3(CC2)Nc2cc(F)ccc2-n2cccc23)cc(OC)c1OC,inactive: 105%
22,COc1ccccc1NC(=O)C1CCN(C(=O)c2ccccc2)CC1,inactive: 95%
23,COc1ccc2c(c1)N(C)/C(=C1/SC(=O)N(c3ccccc3)C1=O)S2,inactive: 94%

row,Compound,survival
1,COCCn1ccc2c(OCC(=O)Nc3ccccc3F)cccc2c1=O,active: 25%
2,O=C(c1cc(-c2ccccc2)on1)N1CCCCC1,inactive: 95%
3,CCOC(=O)N1CCc2c(sc3c2c(=O)n(CCc2ccccc2)c(=O)n3CC(=O)Nc2cccc(C)c2)C1,inactive: 89%
4,Cc1ccc(C)c(NC(=O)c2nn(C)c3c2CS(=O)(=O)c2ccccc2-3)c1,inactive: 78%
5,CC(C)(C)C1CCc2c(sc3nnn(CCOc4ccccc4)c(=O)c23)C1 (configuration not stated),inactive: 72%
6,COc1cc(NC(=O)c2nc3ccccc3nc2N2CCCCC2)cc(OC)c1OC,inactive: 87%
7,Cc1cccc(-c2nc(CSCC(=O)NCCc3ccc(Cl)cc3)c(C)o2)c1,active: -7%
8,CC1CCCN(C(=O)C2CCN(CC3CC=CCC3)CC2)C1 (configuration not stated),inactive: 109%
9,Cc1cccc(-c2nnc(SCC(=O)OC(C)C)n2C)c1,inactive: 67%
10,Cc1ccc(-c2nn(CC(=O)NC3CCCC3)c3c2cnc2ccccc23)cc1,inactive: 118%
11,Cc1ccc(C)c(NC(=O)CN2C(=O)c3cccnc3Oc3ccc(C)cc32)c1,inactive: 80%
12,COc1ccccc1CNC(=O)C1CCN(S(=O)(=O)c2ccc3c(ccn3C)c2)CC1,inactive: 126%
13,NC(=O)Cc1nnc(-c2ccccc2)c(-c2ccccc2)n1,inactive: 78%
14,CCCCn1c(NCc2cc(Br)ccc2O)nc2ccccc21,active: 42%
15,COC(=O)c1c(-c2cccs2)csc1NC(=O)c1ccc(OC)c(OC)c1,inactive: 71%
16,Cc1cccc(NC(c2ccccc2C)c2ccc3ccc(C)nc3c2O)n1 (configuration not stated),active: 0%
17,CCNC(=O)C1CCN(c2nnc(C)c3c(C)n(-c4ccc(OC)cc4)nc23)CC1,inactive: 80%
18,CN1C(=O)/C(=C/C=C2\SCCN2C)OC1=S,inactive: 63%
19,O=S(=O)(NC1CC1)c1cccs1,inactive: 93%
20,Cc1cc(C)n(-c2nc3cc(Cl)ccc3nc2Nc2ccc(CC(=O)O)cc2)n1,inactive: 127%
21,COc1ccc2nc(NC(=O)c3nc(SCc4ccccc4F)ncc3Cl)sc2c1,inactive: 71%
22,CC1=C(C(=O)Nc2ccccc2)C(c2ccncc2)n2nc(SCc3ccccc3F)nc2N1 (configuration not stated),inactive: 93%
23,CCC(C)Nc1oc(-c2ccc(COc3ccc(Cl)cc3)o2)nc1C#N (configuration not stated),inactive: 56%

row,Compound,survival
1,O=C(Nc1ccc(OCc2cc(=O)n3ccccc3n2)cc1)c1ccccc1Cl,inactive: 60%
2,CCc1nnc(NC(=O)c2c(O)c3ccccc3[nH]c2=O)s1,inactive: 84%
3,Cc1cccc(OCC(O)Cn2c(=N)n(CCN3CCCCC3)c3ccccc32)c1 (configuration not stated),inactive: 86%
4,CCN(CC)c1nc2c(S(=O)(=O)c3cccc(Cl)c3)nnn2c2ccsc12,inactive: 62%
5,CCC(C)NC(=O)CSc1nc2c(sc3ccccc32)c(=O)n1CCc1ccc(OC)c(OC)c1 (configuration not stated),inactive: 66%
6,O=C(NC1CC1)C1CCN(C(=O)NCc2ccccc2)CC1,inactive: 66%
7,CCc1ccc(CN(Cc2ccco2)C(=O)COc2ccc(Cl)c(C)c2)cc1,active: 38%
8,Cc1ccc2c(c1)NC(=O)c1cccnc1O2,inactive: 94%
9,Cc1ccc(-c2nc(CS(=O)(=O)CC(=O)NCCc3ccccc3)c(C)o2)cc1,inactive: 100%
10,COc1ccc(S(=O)(=O)c2c(SC)nn(CC(=O)Nc3cccc(C)c3C)c2N)cc1,inactive: 92%
11,Cc1nnc(SCc2ccc(Cl)cc2Cl)o1,inactive: 80%
12,COc1ccc(CNC(=O)Cn2nc(N3CCN(c4ccccc4)CC3)ccc2=O)c(OC)c1,active: -2%
13,COC(=O)c1cccc(NC(=O)c2nsc3ccccc23)c1,active: -1%
14,COc1ccc(CCNC(=O)c2ccc3c(c2)N(Cc2ccccc2F)C(=O)c2ccccc2S3=O)cc1OC (configuration not stated),inactive: 73%
15,CS(=O)(=O)N1CCC(C(=O)Nc2ccccc2)CC1,inactive: 100%
16,CCOc1ccccc1CNC(=O)CCc1c(C)nn(-c2ccc(N3CCOCC3)nn2)c1C,inactive: 77%
17,CCN(CC)S(=O)(=O)c1ccc(C(=O)NCCSc2c(-c3ccc(C)cc3)[nH]c3ccccc23)cc1,inactive: 79%
18,COc1ccc(N2CCN(S(=O)(=O)CCNC(=O)COc3ccccc3F)CC2)cc1,inactive: 83%
19,CCN1CCN(C(=O)Cn2c(-c3cccs3)cc3ccccc32)CC1,inactive: 90%
20,COc1cccc(OCc2cc(=O)n3c(-c4ccccc4)csc3n2)c1,inactive: 74%
21,COc1nc(-c2ccccc2)ccc1-c1noc(-c2ccccc2Br)n1,active: -1%
22,Cc1c(-c2nc(-c3ccccc3F)no2)nnn1-c1cc(F)ccc1F,inactive: 84%
23,CCOC(=O)C1=C(CC)NC2=C(C(=O)CCC2)C1c1ccccc1 (configuration not stated),inactive: 94%
